This note sets out measurements from the RNAGym collection of RNA variant scans (doi:10.1073/pnas.2313332121).

Variants at the background level are over-represented here.

First the molecules themselves.
B1: TPR 5TU (parent)
chain: GGAUCUUCUCGAUCUAACAAAAAAGACAAAUCUGCCACAAAGCUUGAGAGCAUCUUCGGAUGCAGAGGCGGCAGCCUUCGGUGGCGCGAUAGCGCCAACGUUCUCAACUAUGACACGCAAAACGCGUGCUCCGUUGAAUGGAGUUUAUCAUG

In the data set the parent is B1. The data set can be described thus: polymerase ribozyme fitness, log enrichment relative to wild type (log ratio); higher = more active; in vitro selection for triplet polymerase activity. An outline of the steps:
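To select mutant libraries of each subunit of a heterodimeric triplet polymerase ribozyme, built by PCR and transcribed, each was annealed with a biotinylated primer, partner subunit and triplets, then incubated frozen at −7 °C. Extended constructs were gel-excised, captured on streptavidin beads and amplified by RT-PCR, in one round carried out in triplicate. Illumina sequencing of input and output libraries kept genotypes with ≥10 input reads and ≥1 read per output. Fitness is the base-2 logarithm of genotype enrichment relative to wild-type enrichment, from inverse-variance-weighted replicate averages.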
As for GGAUCUUCUCGAUCUAACAAAAAAGACAAAUCUGCCCCAAAGCUUGAGCGCAUCUUCGGAUGCAGAGGCGGCAGCCUUCGAUGGCGCGAUACCGCCAACGUUCUCGAAUAUGACUCGCAAAACGCGUGCUCCGUUGUAUGGAUUUUAUCAUG, the “polymerase ribozyme fitness (log ratio)” value is no more than -4.2. In the case of GGAUCUUCUCGAUCUAACAAAAAAGACAAAUCUGCCCCAAAGUUUGAGAGCAUCUUCGGAUGCAGAGGCGGCCGCCCUCGGUGGCGCGAUAGUGCCAACGUUCUCAACUAUGACAAGCAAAACGCGUGCUCCGUGUAAUGGAGUUUAUCAUG, the “polymerase ribozyme fitness (log ratio)” value was no more than -4.2.

Regarding GGAUCUUCUCGAUCUAACAAAAAAGACAAAUCUGCCCCAAAGCUUGAGCGCAUCUUCGGAUCCAGAGGCGGCAGCCUUCGGUGGCGCGAUAGCGCCAAUGUUCUCAACUAUGACACGCAAAACGCGUGCUCCGUUGAUUGGUGUUUAUCAUG, the “polymerase ribozyme fitness (log ratio)” value is no more than -4.2. Regarding GGAUCUUCUCGAUCUAACAAAAAAGACAAAUCUGCCCCAAAGCUUGAGAGCAUUUUCGGAUGCAGAGGCGGGAGCCUUCGGUGGCGCGAUGGCGCCAACGUUCUCAACGAUGACACGCAAAACGCGUGCUCCGUUGAAUGGAGUUUAUCAUG, the “polymerase ribozyme fitness (log ratio)” value was no more than -4.2. Take GGAUCUUCUCGAUCUAACAAAAAAGACAAAUCUGCCCCAAAGCUUGAGAGCAUCUUCGGAUGCAGUGGCGGCAGCCUUCGGUGGCGCGAUAGCGCCAACGUUCUCGACUAUGACACGCAAAACGCGUGCUCCGUUGAAUGGAGUUUAUCAUG: the “polymerase ribozyme fitness (log ratio)” value is no more than -4.2. The figure for GGAUCUUCUCGAUCUAACAAAAAAGACAAAUCUGCCCCAAAGCUUGAGAGCAUCUUCGGAUGCAGAGGCGGCAGCCUUCGGUGGCGCGAUAGCGCCGACGUUCUCAACUAUGACACGCAAAACGCGUGCUCCGUUGAAUGGAGUUUAUCAAG is no more than -4.2; for GGAUCUUCUCGAUCUAACAAAAAAGACAAAUCUGCCCCAAAGCUUGAGGGCAUCUUCGGAUGCAGAGGCGGCAGCCUUCGGUGGCGCGACGGCGCCAACGUUCUCAACUAUGACACGCAAAACACGUGCUCCGUUGAAUGGAGAUUAUCAUG it is no more than -4.2. As for GGAUCUUCUCGAUCUAACAAAAAAGACAAAUCUGCCCCAAAGCUUGAGAGCAUCUUCGGAUGCAGAGGCGGCAGCCUUCGGUGGCGCGAUAGAGCCAACGUUCUCAACUAUGACACGCAAAACGCGUGCUCCGUUGAAUGGAGUUUAUCAGG, the “polymerase ribozyme fitness (log ratio)” value was no more than -4.2. Next, GGAUCUUCUCGAUCUAACAAAAAAGACAAAUCUGCCCCAAAGCUUGAGCGCAUCUUCGGAUGCAGAGGCGGCAGCCUUCGGUGGCGCGAUGGCACUAACGUUCUCGACUAUGACACGCAAAACGCGUGCUCCGUUGAAUGGAGUUUAUCAUG: no more than -4.2; GGAUCUUCUCGAUCUAACAAAAAAGACAAAUCUGCCCCAAAGCUUGAGAGCAUCUUCGGAUGCAGAGGCGGCAGCCUUCGGUGGCGCGAUAGCGCCGACGUUCUCAACUAUGACACGCAAAACGCGUGCUCCGUUGAAUGGAGUUUAUCAUG: 0.477. Next, GGAUCUUCUCGAUCUAACAAAAAAGACAAAUCUGCCCCAAAGCUUGAGAGCGUCUUCGGAUGCAGAGGCGGCAGCCUUCGGUGGCGCGAUAGCGCCAACGUUCUCAACUAUGACACGCAAAACGCGUGCUCCGUUGAAUGGAGUUUAUCAUG: -0.00493; GGAUCUUCUCGAUCUAACAAAAAAGACAAAUCUGCCCCAAAGCUUGAGUGCAUCUUCGGCGGCAGAGGCGGCAGCCUUCGGUGGCGCGAUAGCGUAAACGUUCUCAACUAUGACACGCAAAACUCGUGCUCCGAUGAAUGCAGUUUAUCAUG: no more than -4.2; GGAUCUUCUCGAUCUAACAAAAAAGACAAAUCUGCCCCAAAGCUUGAGAGCCUCUUCGGAUGCAGAGGCGGCAGCAUUCGGUGGCGCGAUAGCGCAAAUGUUCUCAACUAUGACACGAAAAACGCGUGCUCCGUUGAAUGGAGUUUAUCAUG: no more than -4.2. As for GGAUCUUCUCGAUCUAACAAAAAAGACAAAUCUGCCCCAAAGCUUGAGAGCAUCUUCGGAUGCAGAGGCGGCAGCUUUCGGUGGCGGGAUAGCGCCAACGUUCUCAACUAUGACACGCAAAUCGCGUGCUCCGUUGAACGGAGUUUAUCAUG, the “polymerase ribozyme fitness (log ratio)” value was no more than -4.2.

As to GGAUCUUCUCGAUCUAACAAAAAAGACAAAUCUGCCCCAAAGCUUGAGAGCAUCUUCGGAUGCAGAGGCGGUAGCCUUCGGUGGCGCGAUAGCGCCAAUGUUUUCAGCUAUGACACGCAAAACGCGUGCUCCGUUGAAUGGAGUUUAUCAUG, the “polymerase ribozyme fitness (log ratio)” value is no more than -4.2. As to GGAUCUUCUCGAUCUAACAAAAAAGACAAAUCUGCCCCAAAGCUUGAGAGCAUCUUGGGAUGCAGAGGUGGCAGCCUUCGGUGGCGCGAUAGCGCUAACGUUCUCAACUACGACACGCAAAACGCGUGCUCCGUUUCAUGGAGUUUAUCAUG, the “polymerase ribozyme fitness (log ratio)” value is no more than -4.2.

On to GGAUCUUCUCGAUCUAACAAAAAAGACAAAUCUGCCCAAAAGCUUGAGAGCAUCUUCGGAUGCAGAGGCGGCAGCCUUCGGUGGCGCGAUAGAGCCUACGUUCUCAACUAUGACACGCAAAACGCGUGCUCCGUUGAAUGGAGUUUAUCAUG, for which the “polymerase ribozyme fitness (log ratio)” value is no more than -4.2.

Turning to GGAUCUUCUCGAUCUAACAAAAAAGACAAAUCUGCCCCAAAGCUUGAGAGCAUCUUCGGAUGCUGGGGCGGCAGCCUUCGGUGGAGCGAUAGCGCCAACGUUCUCAGCUAUGACACGCAAAACGCGUGCUCCGUUGAAUGGAGUUUAUCAUG, the “polymerase ribozyme fitness (log ratio)” value was no more than -4.2. The figure for GGAUCUUCUCGAUCUAACAAAAAAGACAAAUCUGCCCCAAAGCUUGAGAGCAUCUUGGGAUGCAGAGGCGGCAGCCUUGGGUUGCGCGAUAGCGCCAACCUUCUCAACUAUGACACGCAAAACGCGUGCUCCGUUGAUUUGAGUUUAUCAUG is no more than -4.2; for GGAUCUUCUCGAUCUAACAAAAAAGACAAAUCUGCCCCAAAGCUUGAGAGCAUCUUCGGAUGCAGAGGAGGCAGCCUUCGGUGGCGCGAUAGCGCCAACGAUCUCAACUAUGACAUGCAAAACGCGUGCUCCGUUGAAUGGAGUUUAUCAUG it is no more than -4.2. The figure for GGAUCUUCUCGAUCUAACAAAAAAGACAAAUCUGCCCCAAUGCUUGAGAGCAUCUUCGGAUGCAGAGGCGGCAGCCUUCGGUGGCGCGAUAGUGCCAACGUUCUCAACUAUGACACGAAAAACGCGUGCUCCGUUGAAUGGAGUUUAUCAUG is -2.93; for GGAUCUUCUCGAUCUAACAAAAAAGACAAAUCUGCCCUAAAGCUUGAGAGCAACUUCGGAUGCAGAGGCGGCAGCCUUCGGUGGCGCGAUGGCGCCAACGUUCUCAACUAUGACACGCAAAACGCGUGCUCCGUUGAAUGGAGUUUAUCAUG it is -3.98; for GGAUCUUCUCGAUCUAACAAAAAAGACAAAUCUGCCCCAAAGCUUGAGAGCCUCUUCGGAUGCAGAGGCGGCAGCCUUCGGUGACGCGAUAGCGCCAACGUUCUCAACUAUGACACGCAAAACGCGUGCUCCGUUGAAUGGAGUUUAUCAUG it is -3.24. The figure for GGAUCUUCUCGAUCUAACAAAAAAGACAAAUCUGCCCCAAAGCUUGCGAGCAUCUUCGGAUGCAGAGGCGGCAGCCUUCGGUGGCGCGAUAGCGCCAACGUUCUCAACUAUGACACGCAAAACGCGUGCUCCGUUGAAUGGAGUUUAUCAUG is -1.24; for GGAUCUUCUCGAUCUAACAAAAAAGACAAAUCUGCCCCAAAGCUUGAGCGCAACUUCGGAUGCGGAGGCGGCAGCUUUCGGUGGCGCUAUAGCGCCAACGUUCUCAACUAUGACACGCAAAACGCGUGCUCCGUUGAAUGGAGUUUAUCAUG it is no more than -4.2. For the variant GGAUCUUCUCGAUCUAACAAAAAAGACAAAUCUGCCCCAAAGCUUGAGAGCAUCUUCGGAUGUUGAGGCGGCAGCAUUCGGUGGCGCGAUUGUGGCAACGUUCUCAACUAUGACACGCAAAACGCGUGCUCCGUUGAAUGGAGUUUAUCAUG, the “polymerase ribozyme fitness (log ratio)” value was no more than -4.2. Next, GGAUCUUCUCGAUCUAACAAAAAAGACAAAUCUGCCCCAAAGCUUGAGAGCAUCUUCGGAUGCAGAGGCGGCAGCCUUCGGUGGCGCGAUAGCGACCACGUUCUCAACUAUGACACGCAAUACGCGUGCUCCGUUGAAUGGAGUUUAUCAUG: -2.71. GGAUCUUCUCGAUCUAACAAAAAAGACAAAUCUGCCCCAAAGCUUGAGAGCAUCUUCGGAUGCCGAGGCGGCAGCCUUCGGUGGCGGGAUAGCGACAACGUUCUCAACUAUGACACGCAAAACGCGUGCUCCGUUGAAUGGAGUUUAUCAUG: the “polymerase ribozyme fitness (log ratio)” value is no more than -4.2.

On to GGAUCUUCUCGAUCUAACAAAAAAGACAAAUCUGCCCCAAAGUUUGAGAGCAUCUUCGGAUGCAGAGUCGGCCGCCUUGGGUGGCGCGAUAGCGUCAACGUUCUCAACUAUGACACGCAAAACGCGUGCUCCGUUGAAUGGAGUUUAGCAUG, for which the “polymerase ribozyme fitness (log ratio)” value was no more than -4.2. As for GGAUCUUCUCGAUCUAACAAAAAAGACAAAUCUGCCCCAAAGCUUGAGAGCAUCUUCGGAUGCAGAGGCGGCAGCCUUCGGUGGCGGGAUAGCGCCAACGUUCUCAACUAUGACACGCAAAACGCGUGCUCCGUUGAAUGGAGUUUAUCAUG, the “polymerase ribozyme fitness (log ratio)” value is no more than -4.2. The figure for GGAUCUUCUCGAUCUAACAAAAAAGACAAAUCUGCCCCAAAGCUUGAGAGCAUCUUCGGAUGCAGAGGCGGCAGCCUUCGGUGGCGUGAUAGCGCCAACGUUCUCAACUAUGACACGCAAAACGCGUGCUCCGUUGAAUGGAGUUUAUCAUG is -0.492; for GGAUCUUCUCGAUCUAACAAAAAAGACAAAUCUGCCCCAAAGCUUGAGAGCAUCUUCGGAUGCAGAGGCGGCAGGCUUCAGUGGCGCGAUAGCGCCAACGUUCUCAACUAUGACACGCAAAACGCGUGCUCCGUUGAAUGGAGUUUAUGAUG it is no more than -4.2; for GGAUCUUCUCGAUCUAACAAAAAAGACAAAUCUGCCCCAAAGCUUGAGAGCAUCUUCGGAUGCAGAGGCGGCAGCCUUCGGUGGCGUGAUAGCGCCAACCUUCUCAACUAUGACACGCAAAACGCGUGCUCCGUUGAAUGGAGUUUAUCAUG it is no more than -4.2. Next, GGAUCUUCUCGAUCUAACAAAAAAGACAAAUCUGCCCCAAAGCUUGAGAGCAUCUUCGGAUGCAGAGGCGGCAGCCUUCGGUGGCGGGAUAGCGCCAACGUUCUCAACUAUGACACGUAACACGCGUGCUCCGUUGAAUGGAGUUUAUCAUG: no more than -4.2; GGAUCUUCUCGAUCUAACAAAAAAGACAAAUCUGCCCCAAAGCUUGAGGGCAUCUUCGGAUGCAGAGGCGGCAGCCUUCGGUGGCGCGAUAUAGCCAGCGUUCUCAACUAUGACUCGCAUAACGCGUUCUCCGUUGAAUGGAAUUUAUCAUG: no more than -4.2.

In the case of GGAUCUUCUCGAUCUAACAAAAAAGACAAAUCUGCCCCAAAGCUUGAGAGCAUAUUCGGAUGCAGAGGCGGCAGCCUUCGGUGGCGCGAUUGCGCCAACGUUGUCAACUAUGACACGCUAAACGCGUGCUCCGUUGAAUGGAGUUUAUCAUG, the “polymerase ribozyme fitness (log ratio)” value was no more than -4.2. The figure for GGAUCUUCUCGAUCUAACAAAAAAGACAAAUCUGCCCCAAAGCUUGAGAGCAUCUUCGGAUGCAGAGGCGGCAGCCUUCGGUGGCGCGAUAGAGCCAACGUUCUCAACUAUGACACGCAAAACGCGUGCUCCGUUGAAUGGAGUUUAUCAUG is -2.8; for GGAUCUUCUCGAUCUAACAAAAAAGACAAAUCUGCCCCAAAGCUUGAGAGCAUCUUCGGAUGGAGAGGCGGCAGCCUUCGGUGGCGCGAUAGCGCCAAAGUUCUCAACUACGAUACGCUAAACGCGUGCUCCGUUGAAUGGAGUUUAUCAUG it is no more than -4.2.
